About 2,200 (0.71%) of roughly 310,000 compounds showed an effect of 50% or more. Effects have a minus sign here. The list shows a part of the results.
Each compound was assayed against human ether-à-go-go-related gene (hERG) potassium channel (human, UniProt Q12809) (assay: primary screen, population patch clamp on CHO cells stably expressing hERG).
human ether-à-go-go-related gene (hERG) potassium channel, sequence (Q12809 whole entry, looked up): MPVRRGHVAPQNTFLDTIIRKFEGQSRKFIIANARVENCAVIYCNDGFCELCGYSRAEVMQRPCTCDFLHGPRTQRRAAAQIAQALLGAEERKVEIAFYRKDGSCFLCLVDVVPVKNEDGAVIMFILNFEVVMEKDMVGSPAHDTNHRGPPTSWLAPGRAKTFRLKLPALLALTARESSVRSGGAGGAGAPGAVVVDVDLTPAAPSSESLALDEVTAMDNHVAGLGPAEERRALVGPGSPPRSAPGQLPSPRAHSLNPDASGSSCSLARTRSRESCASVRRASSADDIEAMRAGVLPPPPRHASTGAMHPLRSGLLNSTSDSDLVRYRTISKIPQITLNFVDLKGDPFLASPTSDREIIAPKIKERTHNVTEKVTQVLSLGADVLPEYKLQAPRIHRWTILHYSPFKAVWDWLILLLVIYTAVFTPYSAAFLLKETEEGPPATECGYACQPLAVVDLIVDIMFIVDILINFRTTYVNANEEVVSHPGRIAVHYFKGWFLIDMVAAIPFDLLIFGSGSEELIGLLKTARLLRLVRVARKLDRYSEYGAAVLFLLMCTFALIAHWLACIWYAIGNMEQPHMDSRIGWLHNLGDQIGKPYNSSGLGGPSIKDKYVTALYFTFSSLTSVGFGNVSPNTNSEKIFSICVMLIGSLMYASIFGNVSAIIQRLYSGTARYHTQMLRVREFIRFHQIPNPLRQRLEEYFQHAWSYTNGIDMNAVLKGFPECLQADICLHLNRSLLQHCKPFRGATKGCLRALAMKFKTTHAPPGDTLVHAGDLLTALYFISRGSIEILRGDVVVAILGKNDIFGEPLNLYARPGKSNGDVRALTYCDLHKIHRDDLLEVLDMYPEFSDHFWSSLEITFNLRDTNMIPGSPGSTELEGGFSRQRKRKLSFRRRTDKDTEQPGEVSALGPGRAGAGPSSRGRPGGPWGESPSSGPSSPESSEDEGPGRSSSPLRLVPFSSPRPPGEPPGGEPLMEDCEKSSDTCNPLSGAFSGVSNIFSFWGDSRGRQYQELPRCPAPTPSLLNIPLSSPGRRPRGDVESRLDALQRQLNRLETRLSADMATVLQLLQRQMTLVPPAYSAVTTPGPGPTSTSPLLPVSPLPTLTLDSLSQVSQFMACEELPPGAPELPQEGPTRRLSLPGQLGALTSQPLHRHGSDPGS

| SMILES | hERG current change (%, negative = inhibition) at 1uM |
| --- | --- |
| CC(=O)c1cccc(NC(=O)C2CCCN(S(=O)(=O)c3cccc4cccnc34)C2)c1 (stereo not drawn) | 11.7% |
| CCc1ccc(OCC(=O)N2CC(C(=O)OC)Oc3ccccc32)cc1 (stereo not drawn) | 5.17% |
| Cl.c1ccc(C2NCCc3ccccc32)cc1 (stereo not drawn) | -6.77% |
| CNC(=O)Nc1ccccc1F | 8.25% |
| CC1(C)Cc2c(sc(NC(=O)c3ccco3)c2C#N)CO1 | -0.942% |
| CC1(C)CC2(CCO1)OC(=O)CC2C(=O)NCCc1ccccc1 (stereo not drawn) | 22.2% |
| O=C(NC(=S)Nc1ncccn1)c1ccc(F)cc1 | 14.7% |
| Cc1c(Br)c(C(F)(F)F)nn1CC(=O)N(C)C1CCCCC1 | 10.6% |
| CN(c1ccccc1)S(=O)(=O)c1ccc(NC(=O)C2CCCCC2C(=O)O)cc1 (stereo not drawn) | 13.1% |
| CCc1ccccc1NC(=O)c1cnn(-c2ccccc2)c1C | 5.93% |
| CC(=O)N1CCN(C(=O)c2cc(S(=O)(=O)NCc3ccccc3)ccc2C)CC1 | 12.3% |
| COCc1cc(C)nc(N/N=C/c2ccc(Cl)c(Cl)c2)c1C#N | 12.4% |
| CC1(C)CC(=O)c2c(nn(-c3ccccc3)c2N)C1 | 20.2% |
| CC(CCN1C(Nc2ccccc2)=NC[C@@H]1C)c1ccccc1 (stereo partly drawn) | -29.6% |
| O=C(CCN1C(=O)c2ccccc2S1(=O)=O)Nc1ccc(F)c(F)c1F | -1.67% |
| Cn1nc(-c2ccccc2)c(-c2nc(-c3cccc(Cl)c3)no2)c1Cl | 9.29% |
| COc1ccc(OC)c(-n2c(=S)[nH]c3cc(C(=O)N4CCCCC4)ccc3c2=O)c1 | 16.9% |
| Cc1cc(Br)c(Cl)cc1NC(=O)CN1C(=O)C2C3CC(c4ccccc4)C(C3)C2C1=O (stereo not drawn) | 10.5% |
| O=C(c1ccccc1F)N1CCOCC1 | 13.3% |
| CCOc1cccc(NC(=O)c2cnccc2C(F)(F)F)c1 | 0.997% |
| COc1ccc(NC(=O)C2=C(C)NC(=O)NC2c2ccccc2[N+](=O)[O-])cc1 (stereo not drawn) | 12.3% |
| O=C(N/N=C/c1ccco1)c1ccncc1 | 13.6% |
| Cc1nc(-c2ccc(NC(=O)c3ccco3)cc2)cs1 | 16.1% |

| SMILES | hERG current change (%, negative = inhibition) at 1uM |
| --- | --- |
| OCc1nnn(-c2cccc(C(F)(F)F)c2)c1CO | 11.3% |
| COc1cccc2c1OCC(CN1CCN(Cc3ccccc3F)C(CCO)C1)=C2 (stereo not drawn) | 12% |
| O=C(N/N=C/C(Cl)=C/c1ccccc1)c1ccncc1 | 7.86% |
| O=C(NNC(=S)Nc1ccccc1)C1CCCCC1 | 17.5% |
| CC(C)c1nc(SCC(=O)N2CCCc3ccccc32)c2c(=O)n(C)c(=O)n(C)c2n1 | 7.58% |
| CC(C)[C@H](NC(=O)c1ccccc1)C(=O)OCC(=O)Nc1ccc(Cl)cc1C(F)(F)F | 11.3% |
| COC(=O)C(CC(C)C)N1CCC(=O)c2ccccc2S1(=O)=O (stereo not drawn) | 4.94% |
| Cc1cc(C2C(=O)C(C(=O)c3ccc(Cl)cc3)C(=O)CC2(C)C)on1 (stereo not drawn) | 3.56% |
| O=C(CSc1nnnn1-c1cccc2c1CCCC2)N1CCOCC1 | 14.8% |
| Cc1ccccc1NCC(=O)N/N=C/c1c[nH]c2ccccc12 | 10.5% |
| COc1cc(C)ccc1OCCOc1c(C)cccc1Cl | 8.94% |
| CC(NC(=O)c1cccc(OC2CCN(C(=O)C3CC3)CC2)c1)c1ccc(F)cc1 (stereo not drawn) | 7.37% |
| Cc1ccnc(N2CCN(C(=O)CSc3nc4ccccc4nc3N3CCC(C)CC3)CC2)c1 | 7.39% |
| O=C(COC(=O)CCSc1ccc(Cl)cc1)NCc1ccco1 | 14% |
| Nc1ccc(S(=O)(=O)N2CCCC2)cc1Cl | 9.49% |
| COC(=O)CCc1nc2ccccc2[nH]c1=O | -6.48% |
| COc1ccc(/C=C2\SC(=S)N(CCC(=O)Nc3cccc(C(=O)O)c3)C2=O)cc1OC | 9.68% |
| COc1ccc(CC(=O)Nc2ccc(-c3cn4cccc(C)c4n3)cc2)cc1OC | -1.68% |
| Cc1cc(Cl)c2oc(C(=O)N3CCC(O)(c4ccccc4)CC3)c(C)c2c1 | 13.4% |
| CCOC(=O)C1=NN(C(=O)Cc2ccccc2)C(O)(C(C)(C)C)C1 (stereo not drawn) | 5.39% |
| O=C(Cn1cc(C(=O)C2CC2)c2ccccc21)NCc1ccccc1 | 10.1% |
| COc1cc(/C=C/c2cc[n+](C)cc2)ccc1OCC(=O)Nc1ccc(Cl)c(Cl)c1.[I-] | 8.29% |

— paper PMC4336329 (PLoS ONE, 2015)
